Reference: PubChem BioAssay AID686978 (National Center for Advancing Translational Sciences (NCATS), 2013)
Values joined by “and” are separate entries in the source; they are usually repeats but may differ in a detail not shown here. Equal entries are not always repeated. About 64,000 (15%) of roughly 420,000 compounds were called active. Inconclusive results, whose numbers are uncertain, are shown with a selection of clear calls. Calls follow the shape of the dose curve; as a rule, active = well fitted inhibition curve with a large enough effect; inconclusive = small, poorly fitted or top-dose-only effect; inactive = flat fitted curve, though single readings scatter. Potencies beside an inconclusive call are fits to weak or partial responses and may not hold up.
% is scaled to controls: 0 for no effect and ±100 for the full control effect; potency is read from the fitted curve at half-maximal effect; tags tell the direction and shape of the fitted curve.

Test: qHTS for Inhibitors of human tyrosyl-DNA phosphodiesterase 1 (TDP1): qHTS in cells in absence of CPT; also: nearly all actives have a fitted effect of over 55% in size
Details: DT40 Tdp1-/- hTDP1 cells, no CPT, ATP luminescence, 48 h; activity change, negative = growth inhibition: at 46.2 µM (top of the series)
Method in brief: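 Chicken DT40 Tdp1-/- cells complemented with human TDP1, screened without camptothecin (DMSO vehicle only), 400 cells/well. Compounds pin-transferred, cells incubated at 37 °C for at least 48 hr. Growth read as ATP-dependent luminescence (CellTiter-Glo, 30 min at RT).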
For `CCOC(=O)c1cc2c(nc1NC(=S)Nc1ccccc1)CC(C)(C)OC2`, the “activity change, negative = growth inhibition” value was inactive: -1.76%. For `CCCCCCCNC(=O)c1ccc(N2CCC3(CC2)OCCO3)c([N+](=O)[O-])c1`, the Potency was inconclusive: 29.1 µM [inhibitor, single point]. For `O=C(COc1c(F)c(F)c(C(F)(F)F)c(F)c1F)Nc1ccc(N2CCOCC2)c(Cl)c1`, the Potency was inconclusive: 20.6 µM [inhibitor, single point]. In the case of `COc1cccc(-n2c(SCC(N)=O)nnc2-c2c[nH]c3ccccc23)c1`, the “activity change, negative = growth inhibition” value is reported as inactive: -5.91%. With `c1ccc(CCNc2ncnc3ccccc23)cc1` the Potency was active: 0.651 µM. For `CCCCn1c(SCC(=O)Nc2cc(NC(=O)c3ccco3)ccc2C)nc2ccccc2c1=O`, the Potency was active: 23.1 µM. For `O=C1Nc2cc(Cl)ccc2C1(N1CCNCC1)C(F)(F)F` (configuration not stated), the Potency was inconclusive: 18.4 µM [inhibitor, single point]. For `Cc1cc(C)nc(NS(=O)(=O)c2ccc(NC(=O)c3ccc(O)cc3O)cc2)n1`, the “activity change, negative = growth inhibition” value was inactive: -8.71%. With `COc1ccc2[nH]c(=O)c(CN(Cc3ccco3)C(=O)c3ccccc3)cc2c1` the “activity change, negative = growth inhibition” value was inactive: -12.6%. In the case of `COc1ccc(OC)c(Nc2nc(C3CC3)nc3c2nnn3Cc2ccccc2)c1`, the Potency is reported as inconclusive: 29.1 µM [inhibitor, single point]. In the case of `COc1ccc(CCNC(=O)c2cc(-c3ccccn3)nc3ccccc23)cc1`, the Potency is reported as inconclusive: 23.1 µM [inhibitor, single point]. With `CC(C)CNc1nnnc2c1sc1nc(N3CCOCC3)c3c(c12)CCCC3` the Potency was inconclusive: 6.51 µM [inhibitor, partial curve]. In the case of `c1ccc(OCc2nn3c(-c4ccncc4)nnc3s2)cc1`, the Potency is reported as inconclusive: 29.1 µM [inhibitor, single point]. With `O=C(NC1=NCCS1)c1cc(-c2cccc(Br)c2)nc2ccccc12` the Potency was inconclusive: 25.9 µM [inhibitor, single point]. With `COC(=O)c1cc(S(=O)(=O)Nc2cccc(-c3ccno3)c2)c[nH]1` the Potency was active: 7.31 µM. For `Cc1cc(C)n(CC(C)NC(=O)c2cc(COc3c(F)cccc3F)on2)n1` (configuration not stated), the activity change, negative = growth inhibition was inconclusive: -30% [inhibitor]. With `COc1ccccc1CNC(=O)Cc1csc(NC(=O)Nc2ccccc2OC)n1` the Potency was active: 23.1 µM. For `COc1cc(/C=C(\C#N)C(=O)c2c[nH]c3ccccc23)cc(OC)c1O`, the “activity change, negative = growth inhibition” value was inactive: -5.13%. With `O=C1C2CCCN2c2ccc(S(=O)(=O)N3CCOCC3)cc2N1Cc1ccccc1F` (configuration not stated) the Potency was inconclusive: 20.6 µM [inhibitor, partial curve, poor fit]. In the case of `CCn1c(-c2ccccc2)c[nH]c1=S`, the Potency is reported as inconclusive: 29.1 µM [inhibitor, single point]. For `CC1CN(C(=O)c2ccc(-c3cccc(C(F)(F)F)c3)o2)CC(C)O1` (configuration not stated), the Potency was active: 13 µM. With `CCOc1ccc(N(C(C)C(=O)N2CCOCC2)S(C)(=O)=O)cc1` (configuration not stated) the “activity change, negative = growth inhibition” value was inactive: -17.4%. In the case of `OC(c1ccc(OCc2ccccc2)cc1)c1nnc(-c2ccccc2)o1` (configuration not stated), the Potency is reported as active: 16.4 µM. With `C/C(Cl)=C/Cc1c(C)[nH]c2c(ccc3ccccc32)c1=O` the Potency was active: 23.1 µM. With `Cc1ccc(C)c(C(O)c2ncc(-c3ccccc3)[nH]2)c1` (configuration not stated) the “activity change, negative = growth inhibition” value was inactive: -28.8%. In the case of `Cc1ccc(C(=O)N/N=C\C=C\c2ccc(Br)cc2)cn1`, the Potency is reported as inconclusive: 20.6 µM [inhibitor, single point]. In the case of `CCOc1ccc(CCNC(=O)c2ccc3c(c2)c(C)c(C)n3Cc2ccccc2)cc1OCC`, the Potency is reported as active: 13 µM. With `O=C(Nc1ccc(Oc2ccccc2)cc1)C1CCN(S(=O)(=O)c2ccc(Cl)cc2)CC1` the Potency was inconclusive: 2.06 µM [inhibitor, partial curve, poor fit]. With `Cc1n[nH]c(C)c1CCCCOc1ccccc1F` the Potency was inconclusive: 23.1 µM [inhibitor, partial curve]. With `CC(C)c1ccccc1NC(=S)NCc1ccccc1F` the Potency was inconclusive: 25.9 µM [inhibitor, single point]. In the case of `N#Cc1c(Cl)nsc1NC(=O)c1ccccc1`, the Potency is reported as active: 8.2 µM. With `CCn1c2ccccc2c2cc(CN3CCOc4ccc(C(O)c5cccnc5)cc4C3)ccc21` (configuration not stated) the Potency was active: 25.9 µM. In the case of `CC(=O)Nc1ccc(S(=O)(=O)NCCC(=O)NCc2ccncc2)cc1`, the “activity change, negative = growth inhibition” value is reported as inactive: -3.67%. In the case of `CCn1c(=O)c(C(=O)NCCCc2ccccc2)c(O)c2ccccc21`, the activity change, negative = growth inhibition is reported as inconclusive: -32.1% [inhibitor]. In the case of `Cc1nn(CCc2n[nH]c(=S)n2C2CCCCC2)c(C)c1Br`, the “activity change, negative = growth inhibition” value is reported as inactive: -15.6%. With `COc1ccc(CCN2C(=O)c3[nH]nc(-c4ccccc4O)c3C2c2ccc(OC)cc2)cc1` (configuration not stated) the Potency was inconclusive: 16.4 µM [inhibitor, single point]. For `O=S(=O)(c1ccc(Cl)cc1)c1nc(-c2ccco2)oc1SCc1ccc(F)cc1`, the Potency was inconclusive: 16.4 µM [inhibitor, single point]. For `CC(NC(=O)C1CCN(C(=O)[C@@H]2Cc3ccccc3CN2)CC1)c1ccccc1` (some centres not stated), the “activity change, negative = growth inhibition” value was inactive: 14.3%. For `COc1ccc(CCNS(=O)(=O)c2ccc3c(c2)NC(=O)CCS3)cc1OC`, the Potency was inconclusive: 16.4 µM [inhibitor, partial curve]. With `CSc1nc(C)c(Cc2c(F)cccc2Cl)c(=O)[nH]1` the “activity change, negative = growth inhibition” value was inactive: 6.61%. With `CC(C)Nc1nc(C#N)nc(NC(C)C)n1` the Potency was inconclusive: 20 µM [inhibitor, single point] and inconclusive: 29.1 µM [inhibitor, single point]. In the case of `CCCC1=[N+](CC(C)=O)CCn2c(C)ccc21`, the Potency is reported as active: 2.31 µM. With `COc1cccc(C(NC(C)=O)c2nc(-c3csc4ccccc34)cs2)c1` (configuration not stated) the Potency was inconclusive: 18.4 µM [inhibitor, single point]. For `COc1ccc(CCC(=O)N2CCc3ccccc32)cc1`, the Potency was inconclusive: 29.1 µM [inhibitor, partial curve, poor fit]. For `CCC(Cc1c(I)cc(I)c(O)c1I)C(=O)O` (configuration not stated), the Potency was inconclusive: 29.9 µM [inhibitor, single point]. With `COc1ccc(N(C)S(=O)(=O)c2c(C)noc2C)c(OC)c1` the Potency was inconclusive: 13 µM [inhibitor, partial curve]. In the case of `CCc1nc2ccc(C(=O)N3CCCCC3)cn2c1N(C)CCCc1ccccc1`, the Potency is reported as inconclusive: 29.1 µM [inhibitor, single point].
